Experimental data from a compilation of properties of binary mixtures (doi:10.1016/j.molliq.2015.11.032).
Some of these densities may be calculated back from excess volumes.

Assay: xn = mol fraction of the nth substance listed
Conditions: 101 kPa

Structure (SMILES)	mass density (298.19 K, x2 = 0.9412)	mass density (303.21 K, x2 = 0.9412)	mass density (313.26 K, x2 = 0.9412)	mass density (323.3 K, x2 = 0.9412)	mass density (333.07 K, x2 = 0.9412)	mass density (343.26 K, x2 = 0.9412)	mass density (353.16 K, x2 = 0.9412)	mass density (298.19 K, x2 = 0.75)	mass density (323.16 K, x2 = 0.75)	mass density (343.26 K, x2 = 0.75)
[Cl-].c1ccc(C[P+](c2ccccc2)(c2ccccc2)c2ccccc2)cc1 + OCC(O)CO	1242.4 kg/m3	1238.1 kg/m3	1230.1 kg/m3	1224.3 kg/m3	1219.3 kg/m3	1211.3 kg/m3	1205.5 kg/m3			
C[P+](c1ccccc1)(c1ccccc1)c1ccccc1.[Br-] + OCC(O)CO								1297.4 kg/m3	1280 kg/m3	1267 kg/m3
